101 compounds from paper PMC6919601, “Identification of Plasmodium dipeptidyl aminopeptidase allosteric inhibitors by high throughput screening” (PLoS ONE, 2019) can be followed below.

Structures are written as SMILES. “And” between values parts separate entries of the source, which are not always exact repeats. Equal entries are not always repeated. Out of some 110,000 compounds screened, about 230 (0.21%) showed an effect of 50% or more. The list shows a part of the results.
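Note: 30 min substrate incubation versus DMSO and 10 µM JCP410 controls.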

Sequence of DPAP1 (Q8IIJ9 whole entry, looked up): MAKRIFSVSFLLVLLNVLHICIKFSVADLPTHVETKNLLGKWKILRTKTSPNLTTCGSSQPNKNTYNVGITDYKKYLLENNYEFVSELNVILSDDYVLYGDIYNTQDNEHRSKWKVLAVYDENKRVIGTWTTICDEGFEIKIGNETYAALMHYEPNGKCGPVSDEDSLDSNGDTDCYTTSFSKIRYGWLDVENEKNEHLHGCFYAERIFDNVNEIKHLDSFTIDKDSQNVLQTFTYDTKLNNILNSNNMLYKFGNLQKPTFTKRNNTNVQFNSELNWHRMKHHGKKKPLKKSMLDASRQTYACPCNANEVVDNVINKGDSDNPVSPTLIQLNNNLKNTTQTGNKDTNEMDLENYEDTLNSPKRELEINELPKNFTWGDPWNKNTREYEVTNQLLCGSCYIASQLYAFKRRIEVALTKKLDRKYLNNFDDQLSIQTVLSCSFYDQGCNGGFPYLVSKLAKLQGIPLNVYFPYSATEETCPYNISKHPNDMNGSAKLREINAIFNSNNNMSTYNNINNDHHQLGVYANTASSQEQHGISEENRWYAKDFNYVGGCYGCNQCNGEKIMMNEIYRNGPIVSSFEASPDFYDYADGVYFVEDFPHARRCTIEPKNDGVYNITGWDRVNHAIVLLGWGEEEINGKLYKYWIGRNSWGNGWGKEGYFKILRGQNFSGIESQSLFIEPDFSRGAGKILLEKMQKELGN

The test has as its target DPAP1 (Plasmodium falciparum, UniProt Q8IIJ9). Briefly: primary screen, percent inhibition; read by cleavage of a fluorogenic dipeptide substrate; higher = more effect of the substance. Details: species or system P. falciparum D10 trophozoite lysates; single well.
Turning to `COc1ccc2c(Sc3ccccc3)c(C(=O)N3CCC(C(N)=O)CC3)[nH]c2c1`, the “% Inhibition @ 10 uM” value was -5.95%.

Regarding `COc1ccc(C2Nc3cccc4cccc(c34)N2)c(OC)c1OC`, the “% Inhibition @ 10 uM” value turned out to be 5.11%.

As for `CC1CCC2C(=O)N(c3cccc(C(=O)O)c3)C(=O)C2C1` (centres unmarked), the “% Inhibition @ 10 uM” value worked out at 8.92%. Turning to `Cc1nnc(N2CCCC(C(=O)NCc3ccccc3)C2)c2nn(-c3ccc(Cl)cc3)c(C)c12` (centres unmarked), the “% Inhibition @ 10 uM” value is on record as 1.91%. Then `O=C(Nc1ccc(C(F)(F)F)cc1)c1cccc(OC(F)F)c1`, with 2.82%; and `O=C(NC1CCCCCC1)C1CCN(C(=O)c2ccc(Br)cc2)CC1`, with -2.67%; and `COc1ccc(/N=C(\C)C2=C(O)CSCC2=O)cc1`, with 1.03%. Then `CC(C)CCNC(=O)C1CCN(c2nc3ccc(Br)cc3s2)CC1`, with 0.0882%; and `CC1Cn2c(C(=O)NCCCc3ccccc3)cc3cccc(c32)S1` (centres unmarked), with 2.32%. Then `CCNC(=O)C1Cc2ccccc2CN1S(=O)(=O)c1cccs1` (centres unmarked), with -0.478%; and `COc1cccc(/C=C2\Sc3ccccc3C2=O)c1O`, with 2.01%; and `CC(C)(C)c1cn2c3ccccc3nc2n1CCCO`, with 0.177%. As for `S=C(c1nc2ccccc2[nH]1)N1CCOCC1`, the “% Inhibition @ 10 uM” value turned out to be 1.26%. Turning to `CC(C)(C)Nc1nc(Cl)nc(NC2CCCC2)n1`, the “% Inhibition @ 10 uM” value is on record as 2%.

Take `O=C1CCC(c2ccc(Cl)cc2)=NN1`: the “% Inhibition @ 10 uM” value is reported as -0.256%.

Take `O=C1/C(=C/c2cccc(O)c2)Sc2ccccc21`: the “% Inhibition @ 10 uM” value is listed as 1.8%. Consider `CCCCNC(=O)Cn1ccc2cc(S(=O)(=O)N3CCCC3)ccc21`, for which the “% Inhibition @ 10 uM” value was determined as 0.536%. In the case of `Cc1ccccc1-c1nc(CS(=O)(=O)CC(=O)NCc2ccccc2Cl)c(C)o1`, the “% Inhibition @ 10 uM” value is listed as -1.89%. To `OCCN1CCN(c2ncnc3scc(-c4ccccc4)c23)CC1` belongs -5.98%; to `O=C(OCC1CC(c2ccccc2)=NO1)c1ccc(Cl)cc1` (centres unmarked), 1.91%; to `O=C(Nc1ccc2c(c1)-c1ccccc1C2=O)c1ccccc1`, 0.843%. On to `COCCNC(=O)c1ccc2c(c1)c(C)c(C)n2C`, for which the “% Inhibition @ 10 uM” value was found to be 0.747%. Consider `CC(C)CCC(=O)NCC#N.COC(=O)c1ccc(-c2ccc(C=O)cc2)c(Cl)c1`, for which the “% Inhibition @ 10 uM” value was -3.48%. As to `COCCNC(=O)c1ccc(CS(=O)c2ccccc2Cl)o1` (centres unmarked), the “% Inhibition @ 10 uM” value is recorded as -0.434%. To `O=C(Nc1ccc2oc(-c3ccc(-c4ccccc4)cc3)nc2c1)c1ccncc1` belongs 4.58%; to `CCC1(C)CC(=O)c2c(ccc3oc(C(=O)N4CCc5ccccc5C4)c(C)c23)O1` (centres unmarked), 2.84%; to `O=C(c1cccnc1)N1N=C(C(F)(F)F)CC1(O)c1ccncc1` (centres unmarked), 4.11%.

Consider `CC(C)CCNC(=O)CN(C)S(=O)(=O)c1cccc2nsnc12`, for which the “% Inhibition @ 10 uM” value is 0.317%. As to `CC(C)OCCCNS(=O)(=O)c1ccc2[nH]c3c(c2c1)CCCC3`, the “% Inhibition @ 10 uM” value came out at 3.21%. To `CC(NS(=O)(=O)c1ccc(OCC(=O)Nc2ccc(F)cc2F)cc1)c1ccccc1` (centres unmarked) belongs 2.13%; to `CC(CC(=O)O)c1ccc2c(c1)n(C)c(=O)n2C` (centres unmarked), 2.22%; to `CC(NC(=O)c1c(O)nc2ccccc2c1O)c1ccccc1` (centres unmarked), 0.219%. As for `O=C(O)CCCC(=O)Nc1cccc(Cl)c1Cl`, the “% Inhibition @ 10 uM” value is listed as -2.55%. Then `COC(=O)c1ccc(Cl)c(-c2ccc(C(=O)N[C@@H](C[C@H](C)c3ccccc3)C(=O)NC3(C#N)CCSCC3)cc2)c1`, with 16.9%; and `Cc1ccc(Cl)cc1-n1ncc2c(NCCCO)ncnc21`, with -3.2%; and `CCCOC(=O)Nc1nnc(Cc2ccccc2)s1`, with 0.927%. `O=C(c1cccs1)n1cnc2ccccc21`: the “% Inhibition @ 10 uM” value came to 0.486%. Regarding `CCOC(=O)C1=C(CN2CC=C(c3ccccc3)CC2)NC(=O)NC1c1cccc(OC)c1OC` (centres unmarked), the “% Inhibition @ 10 uM” value is -1.3%. To `CCOc1ccc(-c2cc(CCCC(=O)NCc3cccnc3)no2)cc1` belongs -11.1%; to `O=C1N(c2ccc(Br)cc2)C2CS(=O)(=O)CC2N1c1cccc(Cl)c1` (centres unmarked), 8.09%; to `COc1ccc(N2CCN(Cc3cc([N+](=O)[O-])ccc3Cl)CC2)cc1`, -5.57%. On to `CC(C)C[C@H](NC(=O)OCc1cccc2ccccc12)C(=O)NCC#N`, for which the “% Inhibition @ 10 uM” value is -3.04%. Then `CCc1cccc(C)c1NC(=O)c1cccc(NC(=O)C(C)C)c1`, with -8.53%; and `Cc1cccc(OCCCn2c(CO)nc3ccccc32)c1`, with -2.28%. Consider `Cc1cc(C)c2c(-n3cccc3)c(C(=O)N3CCC(C(N)=O)CC3)sc2n1`, for which the “% Inhibition @ 10 uM” value stood at 0.623%. To `COc1ccc(CC(=O)c2ccc(OC)c(OC)c2)cc1` belongs 4.84%.

On to `O=C(Nc1ccc(S(=O)(=O)NCCc2ccccc2)cc1)c1cccs1`, for which the “% Inhibition @ 10 uM” value is given as -7.09%. To `COC(=O)C1=CN(Cc2ccc(OC)c(OC)c2)C=C(C(=O)OC)C1c1ccccc1OC(C)C` belongs -5.05%; to `CCC(C)c1ccc(NC(=O)c2ccccc2[N+](=O)[O-])cc1` (centres unmarked), 4.33%; to `CCOC(=O)C1=C(CN2CCN(c3ccc(Cl)nn3)CC2)NC(=O)NC1c1ccc(OC)cc1` (centres unmarked), 0.6%. To `CC(C)C[C@H](NC(=O)OCc1ccccc1)C(=O)N[C@@H](Cc1c[nH]c2ccccc12)C(=O)C[N+](=O)[O-]` belongs -11%; to `COc1ccc(C2CC(=O)N=C(NC(=O)c3cccc(OC)c3)N2)cc1` (centres unmarked), -7.01%; to `COC(=O)c1ccc(-c2ccco2)n1CC(=O)NCCCN1CCOCC1`, -10.7%. To `C=CCOC(=O)c1c2c(n3ccc(C)cc13)C(=O)c1ccccc1C2=O` belongs -6.78%; to `COc1ccc2c(c1)N(S(=O)(=O)c1ccc(C)cc1)CCCC2=O`, 4.32%; to `Cc1ccc(Cc2cnc(CN(C)C)c(O)c2)cc1`, -0.999% and 6.08%.

As to `C=CCOc1ccccc1/C=c1\sc2nc(=O)c(C)nn2c1=O`, the “% Inhibition @ 10 uM” value is recorded as -3.56%.

For the compound `COc1cccc(CNc2c(C)c(C)nc3nncn23)c1`, the “% Inhibition @ 10 uM” value is recorded as -2.57%.

Regarding `CCCC(=O)Nc1ccc(Oc2ccc(Cl)cc2)cc1`, the “% Inhibition @ 10 uM” value worked out at 3.04%. For `O=c1oc2ccc(NS(=O)(=O)c3cc(Cl)ccc3Cl)cc2s1`, the “% Inhibition @ 10 uM” value was -2.94%. Consider `Nc1nc2n(n1)C1(CCCCC1)C1=C(CCCC1)N2`, for which the “% Inhibition @ 10 uM” value amounted to 9.51%. With `O=C(Nc1cccc(Cl)c1)N1CCC/C1=N\c1ccc(Cl)cc1`, the “% Inhibition @ 10 uM” value was determined as 4.61%. As for `CCOC(=O)c1ccc(-c2ccc(/C=C3/C(=O)ON=C3C)o2)cc1`, the “% Inhibition @ 10 uM” value is reported as 3.86%. To `OC1(c2cccs2)C[N+](c2ccccc2)=C2CCCCN21` (centres unmarked) belongs 3.99%. Then `CC1CCCC(N2CCCC(O)C2)C1` (centres unmarked), with 3.19%; and `Cn1ncc2c(N(CCO)CCO)ncnc21`, with 3.99%.

Turning to `CCC(C(=O)Nc1c2c(nn1-c1cccc(Cl)c1)CS(=O)(=O)C2)c1ccccc1` (centres unmarked), the “% Inhibition @ 10 uM” value is 7.53%.

On to `Cc1nn(C(C)C(=O)NC2CCCCCC2)c(=O)c2nn(-c3ccccc3)c(C)c12` (centres unmarked), for which the “% Inhibition @ 10 uM” value was -3.62%. To `CCC(NC(=O)CSc1nc2ccccc2o1)C12CC3CC(CC(C3)C1)C2` (centres unmarked) belongs 0.883%; to `Cc1ccc(S(=O)(=O)N(C)CCCC(=O)N2CCCCC2)cc1`, -0.999%; to `Cc1ccccc1C(=O)n1nc(-c2cccnc2)nc1NCc1cccs1`, -6.64%.

Regarding `Cc1ccc(S(=O)(=O)N(C)CC(=O)NCc2nc(-c3ccccc3)no2)cc1`, the “% Inhibition @ 10 uM” value is 0.486%.

For `CC(C)CNC(=O)c1ccc2c3c(onc13)-c1ccccc1C2=O`, the “% Inhibition @ 10 uM” value came to 1.57%.

Consider `COc1cccc(-c2ccc(C#N)c(SCC(=O)NCc3ccc4c(c3)OCO4)n2)c1`, for which the “% Inhibition @ 10 uM” value is -0.68%. `O=C1/C(=C/c2ccsc2)Cc2ccccc21`: the “% Inhibition @ 10 uM” value was 1.83%. Turning to `Cc1nc(-c2cnn(-c3ccccc3)c2)c2cc(C)oc2n1`, the “% Inhibition @ 10 uM” value is 1.24%.

Regarding `O=C(CC(c1cccs1)N1Cc2ccccc2C1=O)N1CCCCC1` (centres unmarked), the “% Inhibition @ 10 uM” value is 3.31%.

On to `CCCN1CCC(NCc2cccc(Cl)c2)CC1`, for which the “% Inhibition @ 10 uM” value was 1.83%. Then `CCC(NC(=O)[C@H](CC1CCCCC1)/N=C(\C)NS(=O)(=O)c1ccccc1)C(=O)c1nc2ccccc2o1` (some centres unmarked), with -3.14%. To `C=CCn1c(S)nnc1CCC(O)COCCC(C)C` (centres unmarked) belongs -5.26%. For the compound `CCS(=O)(=O)c1nc(S(=O)(=O)c2ccc(Cl)cc2)c(NC)s1`, the “% Inhibition @ 10 uM” value is -2.25%. To `Cc1ccc(-c2c(NCc3ccc(Cl)cc3)c(=O)c2=O)cc1C` belongs -2.57%; to `Clc1cccc(OCCCCCCN2CCCC2)c1`, -7.8%.

As to `Cc1ccc(C2=NS(=O)(=O)N(C)C(C(=O)N3CCN(C(=O)c4cccc(F)c4)CC3)=C2)cc1`, the “% Inhibition @ 10 uM” value was determined as 6.98%. Consider `Cc1nc2sccc2c(=O)n1-c1cccc(Cl)c1`, for which the “% Inhibition @ 10 uM” value is 2.25%. For the compound `O=C(c1cccc(Cl)c1)N(Cc1ccccc1)c1ccccn1`, the “% Inhibition @ 10 uM” value is listed as 1.67%. To `CCc1ccc(Oc2nc3c(C)cccn3c(=O)c2/C=C(\C#N)C(=O)NCCCOC)cc1` belongs 5.21%; to `Oc1nc2c(s1)C(c1cccnc1)C1C3CCC(C3)C1S2` (centres unmarked), -5.36%.

Turning to `O=C(Cn1cnc2ccc(Cl)cc2c1=O)Nc1ccc2ccccc2c1`, the “% Inhibition @ 10 uM” value is -2.83%. Then `OCCNc1nc(N2CCOCC2)ncc1F`, with 3.15%; and `Cc1ccccc1/C=C/C(=O)NCC(=O)N1CCC(N(C)C2CCCCC2C)CC1` (centres unmarked), with -2.85%; and `O=C(Cc1c(C(=O)O)[nH]c2ccccc12)NC1CCCC1`, with 2.17%. For `O=C1c2ccc(F)cc2C(=O)N1C1CCCCCCC1`, the “% Inhibition @ 10 uM” value was -1.35%. Turning to `Cc1cc(=O)oc2c(CN3CCN(CCO)CC3)c(O)ccc12`, the “% Inhibition @ 10 uM” value is 1.25%.

`CCCCc1cc(=O)oc2cc(OC(C)C(=O)O)ccc12` (centres unmarked): the “% Inhibition @ 10 uM” value is recorded as -9.24%. For `Cc1ccc(-n2c(SCC(=O)NCCc3ccccc3)nc3nnc(C)c-3c2N)cc1Cl`, the “% Inhibition @ 10 uM” value is listed as 4.35%. With `Cc1c(C(=O)N(Cc2ccccc2F)C2CCS(=O)(=O)C2)oc2cc(Br)ccc12` (centres unmarked), the “% Inhibition @ 10 uM” value is recorded as 2.02%. Then `C#CC(C)(C)N1CCC(OC(C)=O)CC1`, with -0.969%; and `NC(=O)c1c(NC(=O)CCC2CCCC2)sc2c1CCCC2`, with -0.48%. Then `COc1ccc(CN2CCC(N3CCCCC3)CC2)c(OC)c1C`, with -10.2%; and `Cc1cc(C)n2nc(SCc3cc(=O)n4c(C)cccc4n3)nc2n1`, with -2.14%.
